Measured values: paper PMC4336329 (PLoS ONE, 2015)
About 14,000 (4.5%) of roughly 310,000 compounds showed an effect of 50% or more. Effects have a minus sign here. The list shows a part of the results.

target: human ether-à-go-go-related gene (hERG) potassium channel (human, UniProt Q12809); assay: primary screen, population patch clamp on CHO cells stably expressing hERG
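Note: peak tail current of the secondary pulse compared with the same well before compound.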

human ether-à-go-go-related gene (hERG) potassium channel, sequence (Q12809 whole entry, looked up): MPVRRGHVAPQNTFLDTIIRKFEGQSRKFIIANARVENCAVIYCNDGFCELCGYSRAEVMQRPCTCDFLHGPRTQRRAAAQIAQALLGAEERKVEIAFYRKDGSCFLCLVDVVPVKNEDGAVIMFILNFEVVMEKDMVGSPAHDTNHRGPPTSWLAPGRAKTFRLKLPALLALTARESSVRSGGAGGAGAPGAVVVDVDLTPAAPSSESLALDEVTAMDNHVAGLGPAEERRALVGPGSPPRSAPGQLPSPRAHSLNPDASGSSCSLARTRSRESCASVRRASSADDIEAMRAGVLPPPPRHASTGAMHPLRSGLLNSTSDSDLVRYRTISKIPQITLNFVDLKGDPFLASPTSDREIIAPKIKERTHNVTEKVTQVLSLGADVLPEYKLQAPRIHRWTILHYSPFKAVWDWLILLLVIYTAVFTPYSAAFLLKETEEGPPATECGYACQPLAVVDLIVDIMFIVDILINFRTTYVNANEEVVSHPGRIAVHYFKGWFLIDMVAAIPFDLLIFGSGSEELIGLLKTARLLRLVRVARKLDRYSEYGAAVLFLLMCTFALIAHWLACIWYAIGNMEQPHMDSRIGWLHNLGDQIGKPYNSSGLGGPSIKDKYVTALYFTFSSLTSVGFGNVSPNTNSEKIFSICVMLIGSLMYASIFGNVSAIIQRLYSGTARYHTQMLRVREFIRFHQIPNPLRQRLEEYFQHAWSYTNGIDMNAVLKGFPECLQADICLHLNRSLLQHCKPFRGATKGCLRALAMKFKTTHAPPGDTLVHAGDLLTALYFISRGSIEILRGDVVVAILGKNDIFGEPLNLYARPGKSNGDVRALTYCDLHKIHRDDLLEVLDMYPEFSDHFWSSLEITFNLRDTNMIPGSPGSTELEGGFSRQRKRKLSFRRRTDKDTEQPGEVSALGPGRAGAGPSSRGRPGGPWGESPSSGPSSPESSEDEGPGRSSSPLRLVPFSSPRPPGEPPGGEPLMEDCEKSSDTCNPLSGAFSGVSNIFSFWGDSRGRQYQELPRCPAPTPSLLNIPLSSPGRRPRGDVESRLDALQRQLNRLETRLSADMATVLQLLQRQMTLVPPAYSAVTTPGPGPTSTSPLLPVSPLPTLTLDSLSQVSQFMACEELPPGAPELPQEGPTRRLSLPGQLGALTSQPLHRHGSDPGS

Point of comparison: `Cc1cc(Br)ccc1NC(=O)CNC(=O)CN1C(=O)NC2(CCCCCC2)C1=O`, “hERG current change (%, negative = inhibition) at 10uM” value 2.17%. Against it:
- Cc1noc(C)c1C(=O)OCC(=O)NCCc1ccccc1 — higher, 4.78%
- Cn1nnc(C(O)CN2CCOCC2)n1 (stereo not shown) — lower, -0.784%
- COc1ccc(S(=O)(=O)Nc2c(C(=O)O)[nH]c3ccccc23)c(OC)c1 — lower, -2.48%
- O=C(Nc1ccccc1Br)C1CCC(=O)N1Cc1ccccc1Cl (stereo not shown) — lower, -5.41%
- COc1ccc2c(c1OC)C(=O)N(c1ccc3c(c1)CCC3)C2=O — lower, 1.86%
- O=C(CN1CCOCC1)Nc1c2c(nc3c1CCC3)CCC2.O=C(O)C(=O)O — higher, 15.4%
- Cc1cccc(N(C(=O)CCC(=O)Nc2cc(C)on2)C(C(=O)NC2CCCC2)c2ccc(C)o2)c1 (stereo not shown) — higher, 8.88%
- CCOC(=O)Cc1nnc(Nc2cccc(C)c2)c2ccccc12 — lower, -18.6%
- CC(NC(=O)Cc1ccc([N+](=O)[O-])cc1)c1ccc2c(c1)OCO2 (stereo not shown) — lower, -19.6%
- CCOC(=O)C1=C(C)OC(N)=C(C(=O)OCC)[C@@]12C(=O)N(CC(N)=O)c1ccccc12 — higher, 11.5%
- O=C1Nc2cc(S(=O)(=O)N3CCCC3)ccc2N2CCCC12 (stereo not shown) — higher, 4.26%
- NC(=O)COC(=O)c1cccc(S(=O)(=O)N2CCN(c3ccc(F)cc3)CC2)c1 — lower, 0.497%
- COc1ccc(/C=N/n2c(-c3n[nH]c4c3CCC4)n[nH]c2=S)c(OC)c1OC — higher, 20.7%
- O=C(O)CCNS(=O)(=O)c1ccc2ccccc2c1 — higher, 16.6%
- COc1ccc(CCNC(=O)C23CCC(C)(C(=O)O2)C3(C)C)cc1OC (stereo not shown) — lower, 1.89%
- O=S(=O)(Nc1ccc2nc(C(F)(F)F)[nH]c2c1)c1ccccc1 — higher, 8.26%
- O=C(/C=C/c1ccco1)Nc1ccc(Oc2ccc(Cl)cc2)cc1 — higher, 16.1%
- CCN(CC)C(=O)Cn1cc(/C=C2\C(=O)NC(=O)N(c3ccccc3F)C2=O)c2ccccc21 — higher, 6.39%
- COc1cc2c(cc1OC)C(COc1ccc(F)cc1)N(C(C)=O)CC2 (stereo not shown) — lower, -11.9%
- CCOc1ccccc1CN1CCN(S(=O)(=O)CC)CC1.O=C(O)C(=O)O — higher, 10.7%
- CCOc1ccc(N2C(=O)/C(=C/c3ccccc3OCC(=O)OC)N(CC(=O)OC)C2=S)cc1 — lower, -4.43%
- CC12CCC(C(=O)Nc3cccc(Cl)c3Cl)([C@H](Br)C1=O)C2(C)C (stereo partly shown) — lower, -39.6%
- O=C(O)/C=C/C(=O)NNC(=O)c1cccc(Br)c1 — higher, 3.74%
- CN(CC(=O)Nc1cccc(F)c1)C(=O)c1cccc(N2C(=O)CCC2=O)c1 — higher, 7.61%
- CCC(=O)N1CCc2cc(S(=O)(=O)NCCC(=O)NCc3ccccc3OC)ccc21 — higher, 9.13%
- O=C(CSc1nc2cc(Cl)ccc2o1)NCCc1ccccc1 — higher, 3.36%
- CC(C)(C)C1CCC(C(=O)OCC(=O)N2CCOCC2)CC1 (stereo not shown) — lower, -4.85%
- Cc1ccc(S(=O)(=O)N2CCC(C(=O)OCC(=O)NC(C)c3ccc(F)cc3)CC2)cc1C (stereo not shown) — lower, -45.2%
- Nc1sc(-c2ccccc2)c(Cc2ccccc2)c1C(=O)O — lower, -2.59%
- CC(=O)Nc1cccc(C(=O)N(CCc2ccccc2)Cc2ccccc2)c1 — lower, -3.89%
- CCc1c(C(=O)NNC(=S)NCC2CCCO2)csc1C (stereo not shown) — lower, -7.27%
- Cc1noc(C)c1CCC(=O)N1CCCC(N2CCN(c3ccc(F)cc3)CC2)C1 (stereo not shown) — lower, -53.4%
- O=C(Nc1cccnc1)C12CC3CC(CC(C3)C1)C2 — lower, -7.79%
- COc1cccc(N(CC(=O)NC2CCCC2)C(=O)CCCC(=O)Nc2ccccn2)c1 — lower, -0.819%
- Nc1nc(Nc2ccc(Cl)cc2)n[nH]1 — higher, 3.52%
- COc1cc(C(=O)N2C[C@H]3C[C@@H](C2)c2cccc(=O)n2C3)cc(OC)c1OC — higher, 8.06%
- Cc1ccccc1C(=O)NC(NCc1ccco1)C(Cl)(Cl)Cl (stereo not shown) — lower, -8.92%
- O=C(Cn1ncc2c([nH]c3ccccc32)c1=O)N1CCOCC1 — higher, 16.4%
- CCn1c(SCC(=O)N2CCN(c3ccccc3)CC2)nc2c([nH]c3ccccc32)c1=O — higher, 7.13%
- c1ccc2oc(N3CCNCC3)nc2c1 — lower, -12.9%
- CSc1ccc(Cn2nnc(C(=O)NCCc3ccc(Cl)cc3)c2N)cc1 — higher, 10.7%
- COc1ccc(C(=O)Nc2ccc(C(=O)N3CCCC3)cc2)cc1[N+](=O)[O-] — lower, -33.2%
